Test results taken from ChEMBL document CHEMBL4888484, “Replenishing the malaria drug discovery pipeline: Screening and hit evaluation of the MMV Hit Generation Library 1 (HGL1) against asexual blood stage Plasmodium falciparum ,using a nano luciferase reporter read-out” (2022).
The campaign covered roughly 150,000 compounds. About 540 (0.36%) showed an effect of 50% or more. The list shows a part of the results.

Each molecule was assayed on Plasmodium falciparum (assay: Primary screen in NF54 nanoGlo assay, in single point, at 2uM, 72h; a lower Z score goes with more inhibition). Settings: timepoint 72 hour.
Assay type: functional, Erythrocyte

SMILES	% Inhibition	Z score
COc1ccc(S(=O)(=O)Nc2ccc3n(c2=O)C[C@H]2C[C@@H]3CN(Cc3cn(C)c4ccccc34)C2)cc1	-6%	0.92
O=C(Nc1ccc2c(c1)OCO2)N1CCC(Oc2cccnn2)CC1	-14%	2.68
Cc1ccccc1OCCCNC(=O)N1CCC2OCCN(C)C2C1 (stereo unspecified)	-4%	0.48
O[C@H](COCc1ccccc1)Cc1nc(-c2ccsc2)no1	-15%	1.39
CCOc1nc(-c2cccs2)n(-c2cccc(NC(=O)c3ccc(F)cc3)c2)n1	10%	-1.16
O=C1CCCN1CC(=O)N1CCC[C@H](c2[nH]ncc2-c2ccc(F)cc2)C1	-6%	0.84
Cn1cc(CCCNc2ccc(F)cn2)cn1	36%	-4.83
CN(C1CCCCC1)S(=O)(=O)c1ccc2c(c1)CCC(=O)N2	-10%	1.36
COc1ccc(Cl)cc1S(=O)(=O)N1C[C@H]2CC[C@@H](C1)N(C)C2=O	16%	-2.09
CN(C(=O)c1nc(S(C)(=O)=O)ncc1Cl)c1ccccc1	13%	-2
CC(=O)N1CCC(CNC(=O)NCC(C(C)C)C(C)C)CC1	-6%	1.08
Cc1cncc([C@H](C)NCc2ccc(OC(C)(C)C)nc2)c1	0%	-0.07
O=C(Nc1ccccc1)c1cnc(NS(=O)(=O)c2ccccc2)nc1	-14%	2.74
CC(=O)N[C@@H]1C[C@H](Cc2ccccc2)O[C@H](c2ccc(Cl)cc2)C1	-5%	0.98
Cc1ncn(CCNC(=O)Cc2cccnc2)c1C	-19%	1.7
Nc1cc(N2C[C@@H]3[C@H]4CC[C@H](CC4)[C@@H]3C2)nc(N)n1	8%	-1.06
CC(C)Cc1noc(CN(C)C(=O)Nc2ccc3c(c2)C(=O)OC3)n1	-3%	0.54
Cc1c(NC(=O)CN2C[C@@H]3CC[C@H]2CN(Cc2cscn2)C3)cnn1C	1%	-0.22
CCC(CC)(NC(=O)C1CN(C(=O)c2ccc(F)c3ccncc23)C1)C(N)=O	-6%	0.67
OCc1cnc(N2CCO[C@H](C(F)(F)F)C2)cn1	2%	-0.29
CC(C)(C)c1ncc2c(n1)CCN(CCOc1cccc(C(=O)O)c1)C2	-17%	1.81
O=C1NCC2=C1[C@@H](c1ccccc1)Nc1ccccc1N2	-3%	0.24
CC(C)c1ccc(NC(=O)C2CCN(S(=O)(=O)c3ccc4c(c3)sc(=O)n4C)CC2)cc1	-7%	0.88
